Measured values published in the BET-seq Pho4 binding data (Le et al. 2018).
This is one part of the list. Values were computed here from the reads of four pooled replicates and scatter widely.

Target: T1, Pho4 (S. cerevisiae) (UniProt P07270)
T1 sequence: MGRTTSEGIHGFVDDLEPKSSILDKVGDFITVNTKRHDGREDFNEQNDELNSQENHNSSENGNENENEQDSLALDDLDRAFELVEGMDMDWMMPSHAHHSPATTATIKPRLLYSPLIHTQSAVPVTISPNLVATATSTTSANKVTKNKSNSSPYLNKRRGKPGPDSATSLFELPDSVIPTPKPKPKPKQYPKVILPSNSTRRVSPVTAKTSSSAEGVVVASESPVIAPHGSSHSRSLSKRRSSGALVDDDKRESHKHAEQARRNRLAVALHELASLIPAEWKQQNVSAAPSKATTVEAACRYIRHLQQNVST
Test: relative binding free energy (BET-seq); higher = weaker binding
Details: reference: library average

Sequence	relative binding free energy
ATGTTCACGTGGTCAT	0.03 kcal/mol
TAATGCACGTGATGCG	-0.06 kcal/mol
GAATGCACGTGGTGAG	-0.04 kcal/mol
TGGGGCACGTGACGCT	-0.07 kcal/mol
TTAGGCACGTGAACGG	-0.06 kcal/mol
CTGTGCACGTGTTGTG	-0.05 kcal/mol
TTTGACACGTGATTAG	0.15 kcal/mol
GGGTTCACGTGGCACG	0.37 kcal/mol
GAGAACACGTGTGTAT	0.23 kcal/mol
CATTGCACGTGATGGT	0.16 kcal/mol
AGTTGCACGTGAAATG	0.35 kcal/mol
TAATTCACGTGGTATA	0.13 kcal/mol
CGGTTCACGTGGGAGA	0.28 kcal/mol
GTGCTCACGTGTGAAG	0.29 kcal/mol
GGGGTCACGTGGTTAC	0.22 kcal/mol
AGACGCACGTGGTGGG	-0.18 kcal/mol
TGAGTCACGTGTGTTC	0.07 kcal/mol
GGGATCACGTGATGAT	0.2 kcal/mol
ATGGGCACGTGGCTCA	-0.15 kcal/mol
TTATTCACGTGATTCT	0.19 kcal/mol
CGCGGCACGTGGCGTG	-0.23 kcal/mol

Sequence	relative binding free energy
GAGGTCACGTGCGTTA	0.03 kcal/mol
ATAGGCACGTGGTGGG	-0.18 kcal/mol
GTCATCACGTGAAGTT	0.4 kcal/mol
ACGTACACGTGTTGTT	0.1 kcal/mol
TTAAGCACGTGTGATT	-0.04 kcal/mol
TCGTTCACGTGCTGGG	0.3 kcal/mol
ATAGTCACGTGATGGA	0.16 kcal/mol
GGGAGCACGTGAGTGC	0.08 kcal/mol
TCGAGCACGTGATGGG	0.08 kcal/mol
TTGTACACGTGTGGAT	0.02 kcal/mol
TATGACACGTGGGGTA	-0.13 kcal/mol
TGAAACACGTGGGGCT	0.01 kcal/mol
GTGTACACGTGGGCGA	-0.11 kcal/mol
TATGTCACGTGGCATT	-0.13 kcal/mol
GGTCTCACGTGGTGTC	0.3 kcal/mol
CATTACACGTGGTTTA	0.06 kcal/mol
AGTTTCACGTGCTGTT	0.24 kcal/mol
TTGTACACGTGTGACA	0.17 kcal/mol
CGGGGCACGTGGTAGT	-0.13 kcal/mol
AATAACACGTGTTTTA	0.1 kcal/mol
GACTTCACGTGGTTTG	0.25 kcal/mol

Sequence	relative binding free energy
GGCATCACGTGGAGGA	0.24 kcal/mol
TGGTTCACGTGCGGGC	0.22 kcal/mol
TAGATCACGTGGTATA	-0.07 kcal/mol
ATGGGCACGTGCGATG	-0.09 kcal/mol
GTTTCCACGTGATATG	0.15 kcal/mol
GTTGTCACGTGCGTGC	0.02 kcal/mol
TGGAGCACGTGTTACT	-0.12 kcal/mol
GCGGACACGTGTAGTG	0.11 kcal/mol
GAGTTCACGTGTAGGA	0.21 kcal/mol
GTGAGCACGTGTCGAG	-0.01 kcal/mol
TTCGGCACGTGTTAAG	-0.04 kcal/mol
GAGTTCACGTGCGGTG	0.36 kcal/mol
AGCTGCACGTGGGGTA	-0.21 kcal/mol
AGAGGCACGTGTGTTA	-0.16 kcal/mol
GTAGGCACGTGATGTC	0.05 kcal/mol
TAAGACACGTGTAGGA	0.1 kcal/mol
TTACACACGTGGTGTT	-0.09 kcal/mol
CAGGCCACGTGGTGGT	-0.15 kcal/mol
GTTGTCACGTGATGCG	0.28 kcal/mol
ATGAGCACGTGGGGGG	-0.27 kcal/mol
GGAAACACGTGGGGTA	-0.2 kcal/mol
